Assay [1] has as its target T1, recombinant His-tagged FGF12 (UniProt P61328).
T1 sequence: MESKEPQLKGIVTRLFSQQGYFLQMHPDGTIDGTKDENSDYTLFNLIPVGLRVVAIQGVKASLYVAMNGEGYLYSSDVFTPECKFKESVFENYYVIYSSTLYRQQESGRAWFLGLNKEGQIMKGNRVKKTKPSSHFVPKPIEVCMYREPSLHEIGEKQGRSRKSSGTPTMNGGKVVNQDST
The assay can be described thus: condition: only U2OS lysate treated with calf intestinal alkaline phosphatase (CIP); pull-down; recombinant FGF12-His bound to Ni Sepharose, U2OS cell lysate treated with calf intestinal alkaline phosphatase (CIP); western blotting; only the target purified.

The target of assay [2] is T2, FGF12-SBP (UniProt P61328).
T2 sequence: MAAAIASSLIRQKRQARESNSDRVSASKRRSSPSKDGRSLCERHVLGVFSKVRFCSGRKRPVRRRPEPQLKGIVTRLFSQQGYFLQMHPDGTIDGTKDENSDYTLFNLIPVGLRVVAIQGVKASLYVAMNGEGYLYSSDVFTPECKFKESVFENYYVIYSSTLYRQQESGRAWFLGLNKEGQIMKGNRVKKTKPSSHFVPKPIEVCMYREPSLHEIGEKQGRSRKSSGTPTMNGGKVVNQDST
The assay can be described thus: pull-down; lysate of U2OS-FGF12-SBP cells incubated with streptavidin agarose; eluted with Laemmli sample buffer; western blotting; U2OS cells as control. On the technique in general: A western blot detects proteins with antibodies after separation by electrophoresis.

Assay [3] addresses T2, FGF12-SBP. The assay can be described thus: native gel or EMSA; FGF12-SBP complexes from U2OS-FGF12-SBP lysate on streptavidin agarose, eluted with 4 mM biotin, 2D BN-PAGE (4–13%) / SDS-PAGE, western blotting. A general note: Mobility shift assays separate free from complexed probe on a gel.
In assay [4] the target is T1, recombinant His-tagged FGF12. The assay can be described thus: pull-down; recombinant FGF12-His or FGF12Δ-His bound to Ni Sepharose (1 h, 4 °C), incubated with U2OS cell lysate (0.15 M KCl, 40 mM Tris, 1% NP-40, 1 mM EDTA, pH 7.2) overnight at 4 °C; western blotting; also with nuclease-treated lysate (no effect); only the target purified.
For a further assay, the target named is T3, FGF13-mGFP-myc (UniProt Q92913).
T3 sequence: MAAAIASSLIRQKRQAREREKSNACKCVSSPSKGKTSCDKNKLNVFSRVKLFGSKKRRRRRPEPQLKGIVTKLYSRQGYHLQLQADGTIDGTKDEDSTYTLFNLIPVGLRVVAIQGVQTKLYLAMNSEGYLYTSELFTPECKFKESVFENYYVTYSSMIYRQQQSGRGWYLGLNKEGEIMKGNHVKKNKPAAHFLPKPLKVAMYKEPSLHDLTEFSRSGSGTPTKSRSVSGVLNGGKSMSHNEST
The assay can be described thus: co-IP; the paper calls it pull-down: lysates of U2OS cells stably expressing FHF-mGFP-myc incubated with anti c-myc magnetic beads / anti-myc agarose; western blotting (GFP, NOLC1, TCOF1); U2OS cells as control.

For the next assay, the target named is T4, FGF14-mGFP-myc (UniProt Q92915).
T4 sequence: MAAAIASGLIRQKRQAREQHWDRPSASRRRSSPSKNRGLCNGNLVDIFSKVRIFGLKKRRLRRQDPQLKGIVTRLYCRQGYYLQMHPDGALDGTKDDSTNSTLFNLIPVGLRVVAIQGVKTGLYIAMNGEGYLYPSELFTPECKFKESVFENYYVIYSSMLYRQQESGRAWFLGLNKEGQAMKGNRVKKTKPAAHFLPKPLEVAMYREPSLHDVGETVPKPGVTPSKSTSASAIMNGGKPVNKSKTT
The description is as above.

A further assay has as its target T5, FGF11-mGFP-myc (UniProt Q92914).
T5 sequence: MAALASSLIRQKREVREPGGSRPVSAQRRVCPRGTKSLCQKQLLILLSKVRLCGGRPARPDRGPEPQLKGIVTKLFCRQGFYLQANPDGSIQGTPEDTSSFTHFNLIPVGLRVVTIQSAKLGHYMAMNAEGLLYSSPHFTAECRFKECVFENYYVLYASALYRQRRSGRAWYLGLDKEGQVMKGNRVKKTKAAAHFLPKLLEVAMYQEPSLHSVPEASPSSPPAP
Described as above.

In assay [5] the target is T6, FGF12-mGFP-myc (UniProt P61328).
T6 sequence: T2 sequence
The description is as above.

The target in assay [6] is T7, FGF12 (endogenous, HEK 293 cells lacking ectopic FGF12) (human (endogenous in HEK 293)) (UniProt P61328).
T7 sequence: T2 sequence
The assay can be described thus: proximity ligation; in situ PLA in fixed, permeabilized HEK 293 cells lacking ectopic FGF12, rabbit anti-FGF12 and mouse anti-NOLC1 or anti-TCOF1; also after siRNA against NOLC1 or TCOF1.

For assay [7], the target named is T6, FGF12-mGFP-myc. The assay can be described thus: proximity ligation; in situ PLA (Duolink) in fixed, permeabilized U2OS-FGF12-mGFP-myc cells with antibodies against NOLC1 and FGF12, TCOF1 and FGF12 or NOLC1 and TCOF1; also after siRNA against NOLC1 or TCOF1 or control siRNA.

No constants are given. Whether binding was seen depends on the method and setting. For some assays here: In cells and extracts the contact can be indirect. Some results given as binding are weak or reduced against the parent protein; the word gives no strength. For some assays here: Sequences can lack the tags named with a protein.

B1: nucleolar and coiled-body phosphoprotein 1 (protein, UniProt Q14978 1-699)
chain: MADAGIRRVVPSDLYPLVLGFLRDNQLSEVANKFAKATGATQQDANASSLLDIYSFWLKSAKVPERKLQANGPVAKKAKKKASSSDSEDSSEEEEEVQGPPAKKAAVPAKRVGLPPGKAAAKASESSSSEESSDDDDEEDQKKQPVQKGVKPQAKAAKAPPKKAKSSDSDSDSSSEDEPPKNQKPKITPVTVKAQTKAPPKPARAAPKIANGKAASSSSSSSSSSSSDDSEEEKAAATPKKTVPKKQVVAKAPVKAATTPTRKSSSSEDSSSDEEEEQKKPMKNKPGPYSSVPPPSAPPPKKSLGTQPPKKAVEKQQPVESSEDSSDESDSSSEEEKKPPTKAVVSKATTKPPPAKKAAESSSDSSDSDSSEDDEAPSKPAGTTKNSSNKPAVTTKSPAVKPAAAPKQPVGGGQKLLTRKADSSSSEEESSSSEEEKTKKMVATTKPKATAKAALSLPAKQAPQGSRDSSSDSDSSSSEEEEEKTSKSAVKKKPQKVAGGAAPSKPASAKKGKAESSNSSSSDDSSEEEEEKLKGKGSPRPQAPKANGTSALTAQNGKAAKNSEEEEEEKKKAAVVVSKSGSLKKRKQNEAAKEAETPQAKKIKLQTPNTFPKRKKGEKRASSPFRRVREEEIEVDSRVADNSFDAKRGAAGDWGERANQVLKFTKGKSFRHEKTKKKRGSYRGGSISVQVNSIKFDSE
modifications: heavily phosphorylated (sites not given)
Regarding B1, the binding result is “no binding” in assay [1]; “binds” in the assay with FGF12-SBP [2]; “binds” in the assay with FGF12-SBP [3]; “binds” in assay [4]; “binds” with FGF13-mGFP-myc; “binds” with FGF14-mGFP-myc. Besides, the binding result (with FGF11-mGFP-myc; with FGF12-mGFP-myc [5]; in assay [6]; with FGF12-mGFP-myc [7]) was “binds” each time.

B2: treacle ribosome biogenesis factor 1 (protein, UniProt Q13428 1-1488)
chain: MAEARKRRELLPLIYHHLLRAGYVRAAREVKEQSGQKCFLAQPVTLLDIYTHWQQTSELGRKRKAEEDAALQAKKTRVSDPISTSESSEEEEEAEAETAKATPRLASTNSSVLGADLPSSMKEKAKAETEKAGKTGNSMPHPATGKTVANLLSGKSPRKSAEPSANTTLVSETEEEGSVPAFGAAAKPGMVSAGQADSSSEDTSSSSDETDVEGKPSVKPAQVKASSVSTKESPARKAAPAPGKVGDVTPQVKGGALPPAKRAKKPEEESESSEEGSESEEEAPAGTRSQVKASEKILQVRAASAPAKGTPGKGATPAPPGKAGAVASQTKAGKPEEDSESSSEESSDSEEETPAAKALLQAKASGKTSQVGAASAPAKESPRKGAAPAPPGKTGPAVAKAQAGKREEDSQSSSEESDSEEEAPAQAKPSGKAPQVRAASAPAKESPRKGAAPAPPRKTGPAAAQVQVGKQEEDSRSSSEESDSDREALAAMNAAQVKPLGKSPQVKPASTMGMGPLGKGAGPVPPGKVGPATPSAQVGKWEEDSESSSEESSDSSDGEVPTAVAPAQEKSLGNILQAKPTSSPAKGPPQKAGPVAVQVKAEKPMDNSESSEESSDSADSEEAPAAMTAAQAKPALKIPQTKACPKKTNTTASAKVAPVRVGTQAPRKAGTATSPAGSSPAVAGGTQRPAEDSSSSEESDSEEEKTGLAVTVGQAKSVGKGLQVKAASVPVKGSLGQGTAPVLPGKTGPTVTQVKAEKQEDSESSEEESDSEEAAASPAQVKTSVKKTQAKANPAAARAPSAKGTISAPGKVVTAAAQAKQRSPSKVKPPVRNPQNSTVLARGPASVPSVGKAVATAAQAQTGPEEDSGSSEEESDSEEEAETLAQVKPSGKTHQIRAALAPAKESPRKGAAPTPPGKTGPSAAQAGKQDDSGSSSEESDSDGEAPAAVTSAQVIKPPLIFVDPNRSPAGPAATPAQAQAASTPRKARASESTARSSSSESEDEDVIPATQCLTPGIRTNVVTMPTAHPRIAPKASMAGASSSKESSRISDGKKQEGPATQVSKKNPASLPLTQAALKVLAQKASEAQPPVARTQPSSGVDSAVGTLPATSPQSTSVQAKGTNKLRKPKLPEVQQATKAPESSDDSEDSSDSSSGSEEDGEGPQGAKSAHTLGPTPSRTETLVEETAAESSEDDVVAPSQSLLSGYMTPGLTPANSQASKATPKLDSSPSVSSTLAAKDDPDGKQEAKPQQAAGMLSPKTGGKEAASGTTPQKSRKPKKGAGNPQASTLALQSNITQCLLGQPWPLNEAQVQASVVKVLTELLEQERKKVVDTTKESSRKGWESRKRKLSGDQPAARTPRSKKKKKLGAGEGGEASVSPEKTSTTSKGKAKRDKASGDVKEKKGKGSLGSQGAKDEPEEELQKGMGTVEGGDQSNPKSKKEKKKSDKRKKDKEKKEKKKKAKKASTKDSESPSQKKKKKKKKTAEQTV
modifications: heavily phosphorylated (sites not given)
Consider B2, for which the binding entry is “binds” with FGF12-SBP [2]; “binds” with FGF12-SBP [3]; “binds” in assay [4]; “no binding” with FGF13-mGFP-myc; “no binding” with FGF14-mGFP-myc; “no binding” in the assay with FGF11-mGFP-myc. In addition, the binding entry (with FGF12-mGFP-myc [5]; in assay [6]; with FGF12-mGFP-myc [7]) was “binds” throughout.

B3: Thyroid hormone receptor-associated protein 3 (protein, UniProt Q9Y2W1 1-955)
chain: MSKTNKSKSGSRSSRSRSASRSRSRSFSKSRSRSRSLSRSRKRRLSSRSRSRSYSPAHNRERNHPRVYQNRDFRGHNRGYRRPYYFRGRNRGFYPWGQYNRGGYGNYRSNWQNYRQAYSPRRGRSRSRSPKRRSPSPRSRSHSRNSDKSSSDRSRRSSSSRSSSNHSRVESSKRKSAKEKKSSSKDSRPSQAAGDNQGDEAKEQTFSGGTSQDTKASESSKPWPDATYGTGSASRASAVSELSPRERSPALKSPLQSVVVRRRSPRPSPVPKPSPPLSSTSQMGSTLPSGAGYQSGTHQGQFDHGSGSLSPSKKSPVGKSPPSTGSTYGSSQKEESAASGGAAYTKRYLEEQKTENGKDKEQKQTNTDKEKIKEKGSFSDTGLGDGKMKSDSFAPKTDSEKPFRGSQSPKRYKLRDDFEKKMADFHKEEMDDQDKDKAKGRKESEFDDEPKFMSKVIGANKNQEEEKSGKWEGLVYAPPGKEKQRKTEELEEESFPERSKKEDRGKRSEGGHRGFVPEKNFRVTAYKAVQEKSSSPPPRKTSESRDKLGAKGDFPTGKSSFSITREAQVNVRMDSFDEDLARPSGLLAQERKLCRDLVHSNKKEQEFRSIFQHIQSAQSQRSPSELFAQHIVTIVHHVKEHHFGSSGMTLHERFTKYLKRGTEQEAAKNKKSPEIHRRIDISPSTFRKHGLAHDEMKSPREPGYKAEGKYKDDPVDLRLDIERRKKHKERDLKRGKSRESVDSRDSSHSRERSAEKTEKTHKGSKKQKKHRRARDRSRSSSSSSQSSHSYKAEEYTEETEEREESTTGFDKSRLGTKDFVGPSERGGGRARGTFQFRARGRGWGRGNYSGNNNNNSNNDFQKRNREEEWDPEYTPKSKKYYLHDDREGEGSDKWVSRGRGRGAFPRGRGRFMFRKSSTSPKWAHDKFSGEEGEIEDDESGTENREEKDNIQPTTE
With B3, the binding entry in assay [4] was “binds”.

The values are drawn from article PMC9677703.
